Source: PubChem BioAssay AID493208 (National Center for Advancing Translational Sciences (NCATS), 2011)
Screen size: about 44,000 compounds; about 340 (0.77%) were called active. Inconclusive results (about 5%) are left out. Calls come from the whole dose curve; as a rule, active = well fitted inhibition curve with a large enough effect; inconclusive = small, poorly fitted or top-dose-only effect; inactive = flat fitted curve, though single readings scatter. The list shows a part of the results.

Test: Acumen qHTS Assay for Inhibitors of the mTORC1 Signaling Pathway in MEF (Tsc2-/-, p53-/-) Cells: Sytravon;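 note: plate controls were DMSO for no effect and rapamycin for full effect; nearly all actives have a fitted effect of over 50% in size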
Settings: phospho-rpS6 immunofluorescence/PI, 24 h; series mostly up to 38.3 µM; activity change, negative = inhibition: at the top concentration
Outline: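 Tsc2-/-, p53-/- mouse embryonic fibroblasts (empty-vector line) exposed to compound 24 hrs at 37 C, fixed, immunostained for phospho-rpS6 and counterstained with propidium iodide. Acumen laser scanning gives % positive cells from Alexa 488/PI ratio, thresholded using 7.5 nM rapamycin; PI count gives viability.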

Activity change, negative = inhibition, inactive:
CSc1ccc(CCNC(=O)C(C)n2c(C)c3cnn(-c4ccccc4)c(=O)c3c2C)cc1 (configuration not stated) -0.373%
COC(=O)c1cc2oc(C)cc2n1CC(=O)Nc1ccc(C)cc1C -3.41%
O=C(Cn1c(=O)n(Cc2ccccc2)c(=O)c2oc3ccccc3c21)Nc1ccc(Cl)cc1 -1.22%
Cc1ccc(/C=C/c2onc(C)c2S(=O)(=O)N2CCC(C(=O)N3CCOc4ccccc43)CC2)cc1 -14.8%
CC(=O)Nc1cc(C(=O)NCc2ccc(F)cc2Cl)ccc1Sc1ccc(Cl)cc1 0%
Oc1ccc(Cl)cc1Nc1nc2ccccc2n2cnnc12 -2.33%
CCOC(=O)c1ccc(NC(=O)Cc2ccc(-n3c(CC)nc4cccnc43)cc2)cc1 -9.69%
O=C(CC(c1ccccc1)c1cc(Br)ccc1O)NCC1(c2ccccc2)CCCC1 (configuration not stated) -13.1%
COc1ccccc1N(Cc1cc2cccc(C)c2[nH]c1=O)C(=O)c1cccc(Cl)c1 2.19%
NC(=O)c1cc(S(=O)(=O)N2CCCCC2)cs1 2.83%
COc1ccc(CCn2c3c(c(=O)[nH]c2=O)C(NC(=O)c2ccccc2)(C(F)(F)F)C(=O)N3)cc1OC (configuration not stated) -0.542%
CCNC(=O)CC1C(=O)N(c2ccc(C)cc2)C(=O)N1Cc1ccc(C)cc1 (configuration not stated) 1.12%
O=C(CCS(=O)(=O)c1ccc2c(c1)NC(=O)CO2)Nc1cccc(C(F)(F)F)c1 8.45%
CCn1cc(S(=O)(=O)c2cc(C)cc(C)c2)c(=O)c2cc(F)c(N3CCC(C)CC3)cc21 0.889%
Cc1ccc2nc(-c3ccc(C)c(NC(=O)CSc4ccc(Cl)cc4)c3)oc2c1 -2.1%
CCOc1ccc(N(C(=O)c2ccc(C)cc2)S(=O)(=O)c2ccc3c(c2)n(C)c(=O)n3C)cc1 4.83%
Cc1ccc2cccc(NC(=O)c3ccc(-c4cc(Cl)ccc4Cl)o3)c2n1 14.4%
Cc1ccc(Cl)cc1N1CCN(C(=O)Cn2cnc3nc4c(cc3c2=O)CCCC4)CC1 4.07%
Cc1ccc(C)n1-c1nnc(N2CCCC(C(=O)NCc3ccc(F)cc3)C2)s1 (configuration not stated) -1.84%
O=C(NCc1ccc(Cl)cc1)c1cc2ccccc2o1 2.65%
CCN(CC)C(=O)Cn1c(=O)n(CCCCCC(=O)NCc2ccccc2Cl)c(=O)c2sccc21 2.68%
COc1ccc(OC)c(NC(=O)c2ccc3c(c2)c(C)c(C)n3Cc2ccc(F)cc2)c1 -10.7%
O=C(NCc1cccc(Br)c1)c1cccn1-c1nnc(N2CCCCC2)s1 -5.23%
Cc1ccc(NC(=O)Cn2c(C)cc(C)c(C#N)c2=O)cc1F 5.97%
Cc1cc(C)c(/C=C/c2onc(C)c2S(=O)(=O)N2CCC(C(=O)N3CCN(c4ccc(Cl)cc4)CC3)CC2)c(C)c1 3.75%
Cc1ccc(C(=O)Nc2nc3n(n2)C(c2ccccc2)C=C(c2ccccc2)N3)cc1 (configuration not stated) -6.14%
CC1CCc2onc(C(=O)N3CCN(c4cccc(C(F)(F)F)c4)CC3)c2C1 (configuration not stated) 5.06%
COc1ccc(-c2nc3ccccc3s2)cc1NC(=O)c1cc2ccccc2o1 -0.562%
Cc1ccc(NC(=O)CCNS(=O)(=O)c2cccc3nsnc23)cc1 -10.1%
CN(CC(=O)Nc1ccc(F)cc1F)S(=O)(=O)c1ccc(C(=O)N2CCOCC2)s1 0%
CN1CCN(C(c2cccc(Br)c2)c2sc3nc(-c4ccco4)nn3c2O)CC1 (configuration not stated) 1.2%
CCC(=O)N1CCc2cc(Br)cc(S(=O)(=O)CCC(=O)NCCc3ccccc3Cl)c21 0.616%
CCOc1ccc(-c2nonc2NC(=O)c2ccc(C)cc2)cc1OCC 0.214%
O=C(Cc1csc2ccccc12)NCc1ccccc1F -0.675%
CCC(=O)OCCCNc1nc(-c2ccc(Cl)cc2)nc2ccccc12 -3.18%
CC(=O)N1CCCc2cc(S(=O)(=O)N3CCN(c4ccc(F)cc4)CC3)ccc21 -7.08%
CCc1cccc(-n2nnc(-c3nc(-c4cccs4)no3)c2N)c1 -8.6%
COc1ccc(NC(=O)c2noc3c2CSc2ccccc2-3)cc1Cl 2.38%
Clc1ccc2nc(-c3ccc(Br)o3)c(Nc3ccc4c(c3)OCCO4)n2c1 3.82%
COc1cccc(OC)c1C(=O)Nc1cccc(-c2nc3cc(C)cc(C)c3o2)c1 -1.92%
O=C(CSc1nc2ccsc2c(=O)n1Cc1ccccc1F)NCc1ccccc1 -9.29%
CCc1ccc(NC(=O)CN2C(=O)C(c3ccccc3)=NC23CCCCCC3)cc1 -2.68%
CCc1ccc(NC(=O)N(Cc2ccc(C)cc2)Cc2cccn2-c2nnc(N3CCCC3=O)s2)cc1 -7.96%
Cc1ccc2nc(CSc3nnc(NC(=O)COc4ccccc4)s3)cc(=O)n2c1 0%
CCOC(=O)c1c(C)c(-c2ccccc2)n(CC(=O)NCCc2ccc(C)cc2)c1C -4.26%
CCCCc1ccc(NC(=O)COc2cccc3c(=O)n(C)ccc23)cc1 -2.84%
CCOC(=O)c1ccc(NC(=O)c2cc(=O)c3cc(CC)ccc3o2)cc1 1.3%
Cc1ccc(NC(=O)N2CCC(CN3CCC(C)CC3)CC2)cc1F -2.62%
COc1ccc(-c2cc(C(F)(F)F)nc(SCC(=O)NCCc3ccc(OC)c(OC)c3)n2)cc1 -1.19%
Cc1ccc(NC(=O)C2CCCN(c3nnc(-n4c(C)ccc4C)s3)C2)cc1Cl (configuration not stated) -8.39%
COc1cccc(CNC(=O)C(NS(=O)(=O)c2ccc3nc(C)sc3c2)C(C)C)c1 (configuration not stated) -4.68%
Cc1ccc(C(CC(=O)Nc2cc(C)cc(C)c2)N2Cc3ccccc3C2=O)cc1 (configuration not stated) -8.36%
Cc1cccc(NC(=O)CSc2nnc(C)c(=O)[nH]2)c1 -1.72%
CCS(=O)(=O)NCC(c1ccco1)N1CCN(c2ccc(OC)cc2)CC1 (configuration not stated) -1.39%
CCN(CC)c1ccc(-n2nc3cc(C)c(NC(=O)c4ccccc4F)cc3n2)cc1 0.419%
Cc1ccccc1CN1c2ccccc2-c2nc(SCC(=O)NCCc3ccccc3)ncc2S1(=O)=O 8.34%
CCOc1ccc(NC(=O)c2ccc(F)c(S(=O)(=O)NCc3ccc4c(c3)OCO4)c2)cc1 -15.1%
COc1ccc(-n2c(SCc3ccccc3F)nc3c([nH]c4ccccc43)c2=O)cc1 -11.5%
O=C(NC1CC(=O)N(c2ccc(Cl)cc2)C1)c1ccc(S(=O)(=O)N2CCCC2)cc1 (configuration not stated) 1.95%
Cc1ccccc1CSc1nnc2[nH]c(=O)cc(C)n12 1.35%
O=C(Cn1cc(S(=O)(=O)Cc2ccc(F)cc2)c2ccccc21)NCc1ccccc1Cl -3.51%
Cc1oc2ncn(CC(C)C)c(=O)c2c1C(=O)NCCCN(Cc1ccccc1)C(C)C -3.67%
CCc1cccc(C)c1NC(=O)CSc1nnc(N)s1 -4.85%
COc1ccc(CCNC(=O)CS(=O)Cc2nc(-c3ccc(C)cc3)oc2C)c(OC)c1 (configuration not stated) -7.82%
COc1ccc(CCNC(=O)C(=O)NCC(c2ccco2)S(=O)(=O)c2ccccc2)cc1OC (configuration not stated) -0.558%
O=C(Cn1c(=O)nc(-c2ccccc2)c2ccccc21)NCCCc1ccccc1 -15.5%
Cc1ccccc1N1CCN(S(=O)(=O)c2nnc(NC(=O)c3ccc(Cl)cc3)s2)CC1 -4.97%
CCOc1ccccc1NS(=O)(=O)c1cnc(N)nc1 -5.37%
CCCC12CN3CC(C)(CN(C1)C3c1cn(C)c3ccccc13)C2=O (configuration not stated) 0.458%
CCc1cccc(NCc2ccccc2-c2nnc(-c3ccccc3Cl)o2)c1 3.28%
CCn1c(CN2CCOCC2)nc2cc(NC(=O)c3cc(OC)c(OC)c(OC)c3)ccc21 -2.72%
CSc1nn(Cc2ccc(Br)cc2)c(N(C(C)=O)C(C)=O)c1S(=O)(=O)c1ccccc1 0.0646%
COc1ccccc1N1CCN(C(=O)Cc2c(C(=O)O)c(C)cn2C)CC1 -5.31%
COc1ccc(-c2cc(C(=O)NCc3ccccc3)c3c(-c4ccccc4)[nH]nc3n2)cc1 7.79%
CC1CCN(C(=O)Cn2ncc3c4ccccc4n(Cc4ccc(Cl)cc4)c3c2=O)CC1 -1.13%
CCCCSCCCNC(=O)C1CCC(CNS(=O)(=O)c2ccccc2)CC1 (configuration not stated) -0.852%
CC(=O)c1ccc(NC(=O)c2cc(-c3ccc(Cl)c(Cl)c3)on2)cc1 0.944%
CCc1ccccc1NC(=O)C1CCCN(c2nnc(-n3c(C)ccc3C)s2)C1 (configuration not stated) -5.89%
CCOc1ccc(CCNC(=O)c2ccc3nc(CC)c(CC)nc3c2)cc1 0.226%
COc1ccccc1-c1cc(C(=O)Nc2cc(Cl)ccc2O)no1 -28.7%
O=C(Nc1ccc(F)cc1F)c1ccc2c(=O)n3c(nc2c1)CCCCC3 -0.167%
CCOc1ccc(OCC(=O)Nc2c(C(=O)Nc3ccc(C)cc3)oc3ccccc23)cc1 3.39%
CCOc1ccc(CNC(=O)c2cnc3sc(N4CCC(C)CC4)nn3c2=O)cc1OC -13.2%
O=S(=O)(Nc1cccc(-c2ccc(N3CCCCC3)nn2)c1)c1ccc(Cl)s1 1.7%
Fc1ccc(CNc2nc3ccc(Cl)cc3n3nnnc23)cc1 -13.1%
COc1cccc(-n2c(=O)c3sc4ccccc4c3n(CC(=O)Nc3cccc(Cl)c3)c2=O)c1 -1.15%
CCSc1ncc(Cl)c(C(=O)N2CCN(c3ccc(OC)cc3)CC2)n1 6.44%
C=Cc1ccc(Cn2c(=O)n(-c3cccc(C)c3)c(=O)c3c2c2cc(C)ccc2n3C)cc1 -6.38%
O=C(Nc1ccc2c(c1)N(C1CCCC1)C(=O)c1ccccc1S2)c1ccc(F)cc1 -5.39%
CCN(CC)CCCNC(=O)c1ccc2nc(CCc3ccccc3)oc2c1 1.33%
O=S(=O)(c1cccc(Cl)c1)c1nnn2c1nc(NC1CCCCCC1)c1sccc12 -12.4%
Cc1ccc(S(=O)(=O)c2c(C)nn(-c3ccccc3)c2OC(=O)c2ccccc2F)cc1 6.88%
CCN(CC)c1ccc(NC(=O)C2COc3ccc(OC)cc3C2)c(C)c1 (configuration not stated) -14.2%
CCN(c1ccc(Cl)cc1)S(=O)(=O)c1nnc(NC(=O)C(C)C)s1 -1.13%
CCC(=O)Oc1ccc(-c2nc3ccccc3c(=O)o2)cc1 -0.909%
Cc1ccc(-n2ncc(C(=O)N3CCN(Cc4ccccc4)CC3)c2C2CCN(C(=O)OC(C)(C)C)CC2)c(C)c1 -20.5%
CC(C)(C)OC(=O)N1CCC(c2c(C(=O)NCc3ccco3)cnn2-c2ccc(F)cc2)CC1 -0.843%
